Data as given in PubChem BioAssay AID1745853 (National Center for Advancing Translational Sciences (NCATS), 2022).
The other results are listed elsewhere or left out. Further columns of the screen follow, without active or inactive calls.

Assays:
Assay in all cases: Primary Screen for Target Class Profiling of Small Molecule Inhibitors of Methyltransferases
[1] = target: Glycine N-methyltransferase (Homo sapiens) (UniProt Q14749); details: purified enzyme, MTase-Glo SAH luminescence; measured here: GNMT inhibition; at 40 µM; stronger effect = lower value
In short: (§1)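 Each enzyme was reacted with SAM and its substrate, with compounds tested once at 40 uM; SAH formed was read by MTase-Glo luminescence.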

[2] = target: Guanidinoacetate N-methyltransferase (Homo sapiens) (UniProt Q14353); details: purified enzyme, MTase-Glo SAH luminescence; measured here: GAMT inhibition; at 40 µM; stronger effect = lower value
In short: as §1

[3] = target: Histamine N-methyltransferase (Homo sapiens) (UniProt P50135); details: purified enzyme, MTase-Glo SAH luminescence; measured here: HNMT inhibition; at 40 µM; stronger effect = lower value
In short: as §1

[4] = target: Nicotinamide N-methyltransferase (Homo sapiens) (UniProt P40261); details: purified enzyme, MTase-Glo SAH luminescence; measured here: NNMT inhibition; at 40 µM; stronger effect = lower value
In short: as §1

[5] = target: Phenylethanolamine N-methyltransferase (Homo sapiens) (UniProt P11086); details: purified enzyme, MTase-Glo SAH luminescence; measured here: PNMT inhibition; at 40 µM; stronger effect = lower value
In short: as §1
On the % scale 0 is the no-effect control and ±100 the full control effect.

SMILES | activity change, negative = inhibition [1] | activity change, negative = inhibition [2] | activity change, negative = inhibition [3] | activity change, negative = inhibition [4] | activity change, negative = inhibition [5]
CCCN1C(=O)c2c(C(=O)NCc3ccc(C)cc3)ncn2CC1(C)C(=O)NCc1ccc(OC)cc1 (stereo not given) | 4.07% | 0.827% | 5.45% | 10.6% | 10.2%
Cn1cnnc1CC1CCNC1 (stereo not given) | -1.59% | 2.12% | -4.02% | 0.081% | -0.138%
CCCn1c(=O)c2ccc(C(=O)NC(C)C)cc2n2c(SCC(=O)Nc3ccc(C)cc3C)nnc12 | 0.411% | 2.62% | 3.25% | 11.9% | 2.56%
CCN1C(=O)c2cc(C(=O)NCc3cccc(Br)c3)nn2CC1(C)C(=O)NC1CCCC1 (stereo not given) | 5.5% | 0% | -3.33% | -1.41% | 0.386%
COc1ccc(-c2n[nH]n3c2nc(=O)c2ccc(C(=O)NCCCc4ccccc4)cc23)cc1 | -8.91% | 6.83% | -0.707% | -1.24% | -6.67%
Cn1nc2n(c1=O)CCN(C1CCSCC1)CC2 | -7.13% | -9.37% | -3.69% | -17.1% | -12.2%
O=C(O)c1cccc(C2CCCN(C(=O)c3c(F)cccc3Cl)C2)c1 (stereo not given) | -2.95% | -3.47% | -0.781% | -4.48% | -1.56%
CS(=O)(=O)N(CC(=O)NCC1CC1)c1cc(C(F)(F)F)ccc1Cl | -1.71% | -5% | 0.631% | -17.9% | -3.67%
CCOC(=O)C1=C(CN2CCn3cccc3C2C)NC(=O)NC1c1cccc(OC)c1OC (stereo not given) | -1.49% | 1.66% | 3.25% | 10% | 2.29%
CC(C)c1nnc(C2CN(C(=O)c3ccc4ccccc4n3)CC23CCOCC3)o1 (stereo not given) | -1.43% | -2.48% | 0.079% | -0.723% | 2.52%
CC(C)CCNC(=O)C1(C)Cn2nc(C(=O)N3CCN(C)CC3)cc2C(=O)N1C (stereo not given) | 7.19% | 0.392% | 3.48% | 4.88% | -0.455%
COc1cc2c(NC3CCN(C(C)C)CC3)nc(N3CCC(F)(F)CC3)nc2cc1OCCCN1CCCC1 | 1.46% | 18.9% | -80.2% | -17.6% | -6.37%
CC(C)Cn1c(=O)c2ccc(C(=O)NC(C)C)cc2n2c(=O)n(CC(=O)NC(C)C)nc12 | -4.8% | -2.81% | -1.62% | -1.94% | -4.51%
COC1CCN(CC2CCCCCN2C(=O)c2ccoc2)CC1 (stereo not given) | 1.14% | 2.92% | 2.15% | -3.28% | 19.3%
CCc1cc2c(cc3n2CC(C)(C(=O)NC2CCCCCC2)N(C(C)CCc2ccco2)C3=O)s1 (stereo not given) | -11.3% | 0% | -0.496% | -17.3% | -2.62%
CC#C[C@]1(O)CC[C@H]2[C@@H]3CCC4=CC(=O)CCC4=C3[C@@H](c3ccc(N(C)C)cc3)C[C@@]21C | -3.98% | 7.91% | 9.18% | -15.8% | -7.12%
O=C1COCC2(CN1)CN(C(=O)c1ccc(Cl)cc1)C2 | -0.26% | -6.43% | 0.417% | -5.41% | -5.31%
C[C@@H]1O[C@@H](O[C@H]2[C@H](O[C@H]3[C@H](O[C@H]4CC[C@@]5(C=O)C(CC[C@]6(C)C5CC=C5C7CC(C)(C)C[C@@H](O)[C@]7(C)CC[C@]56C)C4(C)C)O[C@H](C(=O)O)[C@@H](O)[C@@H]3O)OC[C@@H](O)[C@@H]2O)[C@H](O)[C@H](O)[C@H]1O (stereo not given in full) | 0.886% | 1.07% | 7.53% | -12.2% | 0.326%
CCCCN1C(=O)c2cc(C(=O)NCc3ccc(OC)cc3OC)nn2CC1(C)C(=O)NC1CCCC1 (stereo not given) | -6.75% | 0.88% | -8.08% | -43.8% | -4.81%
CN(C)CCCNc1nc(CN2CCN(C(c3ccc(Cl)cc3)c3ccc(Cl)cc3)CC2)nc2ccccc12 | -0.453% | 4.72% | -42.1% | -56% | -2.1%
COc1ccc(-c2n[nH]n3c2nc(=O)c2ccc(C(=O)NCCc4ccccc4)cc23)cc1 | 5.46% | 0.693% | 7.96% | 6.05% | 3.11%
COc1cc(SC)ccc1C(=O)N1CCC(Cc2ccccc2)CC1 | -12.8% | 1.34% | -4.91% | -17.2% | -1.28%
CSc1cccc(N2C(=O)CSc3c(c4ccccc4n3C)C2C(=O)NCc2ccccc2)c1 (stereo not given) | 3.38% | 0% | -0.139% | -3.37% | 2.65%
O=c1cc(-c2ccccc2)c2ccc(OCc3ccc(F)cc3Cl)cc2o1 | 0.458% | 0.91% | 4.83% | 5.12% | -0.388%
CN(C)c1cccc(Oc2nnnn2[C@H]2CO[C@H]3[C@@H]2OC[C@@H]3NCC2CC2)c1 | -2.77% | -3.17% | -2.93% | -4.75% | -2.45%
COc1ccc([C@@H]2CN(C(=O)CCc3c(C)noc3C)C[C@H]2N(C)C)cc1 | -7.17% | -10.3% | -7.93% | -23.2% | -14.3%
CC1(C(=O)NC2CCCCC2)Cn2c(ccc2-c2ccccc2)C(=O)N1Cc1ccc2c(c1)OCO2 (stereo not given) | -1.59% | 0% | -1.94% | 1.34% | 2.09%
